# Measured values: paper PMC4336329 (PLoS ONE, 2015)
# Screen size: about 310,000 compounds; about 2,200 (0.71%) showed an effect of 50% or more. Effects have a minus sign here. Some of the results follow.
# Target: human ether-à-go-go-related gene (hERG) potassium channel (human, UniProt Q12809)
# Test: primary screen, population patch clamp on CHO cells stably expressing hERG
# Chain of human ether-à-go-go-related gene (hERG) potassium channel (Q12809 whole entry, looked up): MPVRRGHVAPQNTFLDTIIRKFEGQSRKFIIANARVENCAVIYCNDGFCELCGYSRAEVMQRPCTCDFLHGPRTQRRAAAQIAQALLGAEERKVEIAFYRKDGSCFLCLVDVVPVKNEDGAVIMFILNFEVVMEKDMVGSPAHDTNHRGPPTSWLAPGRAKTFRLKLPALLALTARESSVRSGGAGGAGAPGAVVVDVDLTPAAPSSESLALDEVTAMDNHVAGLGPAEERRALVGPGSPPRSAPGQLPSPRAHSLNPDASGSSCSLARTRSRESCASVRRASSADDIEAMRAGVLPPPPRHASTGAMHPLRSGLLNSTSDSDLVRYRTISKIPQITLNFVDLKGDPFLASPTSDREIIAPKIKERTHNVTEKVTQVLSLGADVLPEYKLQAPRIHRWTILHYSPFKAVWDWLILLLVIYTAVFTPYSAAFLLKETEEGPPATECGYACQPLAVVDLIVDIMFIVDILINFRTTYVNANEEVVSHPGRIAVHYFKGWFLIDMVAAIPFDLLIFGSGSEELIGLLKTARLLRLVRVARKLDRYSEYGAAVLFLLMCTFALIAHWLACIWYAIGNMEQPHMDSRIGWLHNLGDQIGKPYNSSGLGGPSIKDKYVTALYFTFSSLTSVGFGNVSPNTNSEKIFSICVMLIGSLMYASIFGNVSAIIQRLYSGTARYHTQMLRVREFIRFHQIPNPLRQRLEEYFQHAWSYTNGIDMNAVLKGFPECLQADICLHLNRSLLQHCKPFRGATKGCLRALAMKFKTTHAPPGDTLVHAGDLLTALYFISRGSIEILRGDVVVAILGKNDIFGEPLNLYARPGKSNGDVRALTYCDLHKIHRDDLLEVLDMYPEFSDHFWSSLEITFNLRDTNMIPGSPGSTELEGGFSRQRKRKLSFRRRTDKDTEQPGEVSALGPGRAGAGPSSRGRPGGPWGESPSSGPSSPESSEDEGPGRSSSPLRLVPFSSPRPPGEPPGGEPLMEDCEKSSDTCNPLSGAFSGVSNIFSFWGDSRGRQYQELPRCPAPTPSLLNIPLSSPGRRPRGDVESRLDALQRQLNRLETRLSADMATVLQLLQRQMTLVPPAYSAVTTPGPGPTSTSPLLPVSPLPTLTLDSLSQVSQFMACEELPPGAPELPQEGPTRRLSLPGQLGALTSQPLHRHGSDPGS
row,Compound,"hERG current change (%, negative = inhibition) at 1uM [%]"
1,Cc1ccc(C(NC(=O)c2ccccc2)C(Cl)(Cl)Cl)cc1 (centres unmarked),3.87
2,CCCCCCCC(=O)N/N=C/c1ccncc1,-1.99
3,Cc1nc2ccccn2c1CN(C)C(=O)C1CCC(=O)N(CCc2cccc(F)c2)C1 (centres unmarked),-10.4
4,COc1ccccc1CNC(=O)CN1C(=O)COc2ccc(S(=O)(=O)NC3CCCC3)cc21,10.9
5,COC(=O)c1cc(NC(=O)c2cccnc2)ccc1N1CCOCC1,5.65
6,Fc1ccc(NC(=S)Nc2cccc3ccccc23)cc1,14.1
7,O=C(c1ccc(-n2cccn2)cc1)N1CCc2ccccc2C1,-1.88
8,CCOC(=O)c1sc(NC(=O)c2cc3c(s2)CCC(C)C3)nc1C (centres unmarked),9.63
9,Fc1ccc(-c2csc3nnc(SCc4cccnc4)n23)cc1,-20.6
10,CC1(C)N=C2C(=[N+]1[O-])CCC/C2=N\O,-5.64
11,Cc1cccc2cc(CN(CCCN(C)C)C(=S)NCCc3ccccc3)c(=O)[nH]c12,-48.8
12,CC(=O)Nc1ccc(NC(=O)COc2ccc3c(c2)CCC3)cc1,8.65
13,CCN(CC)C(=O)CSc1nc(O)cc(=O)n1C,10.8
14,Cn1c2ccccc2c2cc(/C=C(\NC(=O)c3ccccc3)C(=O)O)ccc21,10
15,CC(=O)N1CCc2c(sc(NC(=O)CN3C(=O)c4ccccc4C3=O)c2C(N)=O)C1,14.1
16,Cc1cc(OCC(=O)N2CCN(c3ccccc3)CC2)c2c(C)cc(=O)oc2c1,9.51
17,COCCNC(=O)C1CC(=O)N(CCc2ccccc2)C1 (centres unmarked),18
18,CO/N=C/c1ccc(N2CCN(C(=O)c3ccc(C)cc3)CC2)c([N+](=O)[O-])c1,-67.2
19,COc1ccccc1CN1CC(C(=O)N2CCCCCCC2)CCC1=O (centres unmarked),9.94
20,C=C1[C@@H](C)[C@H]2[C@H](Cc3ccccc3)NC(=O)[C@]23OC(=O)/C=C/[C@H](O)CCC[C@@H](C)C/C=C/[C@H]3[C@@H]1O,21.1
21,COC(=O)Nc1nnc(CCc2ccccc2)s1,2.86
22,Cc1cc(Cl)c2oc(C(=O)N(C)CC3CCOCC3)c(C)c2c1,19.8
23,CCOc1ccc(-c2cc(C(=O)N3CCC(C)CC3)c3ccccc3n2)cc1,10.3

row,Compound,"hERG current change (%, negative = inhibition) at 1uM [%]"
1,O=C(Nc1ccc(NC(=O)c2ccc3c(c2)OCCO3)cc1)c1ccccc1,1.48
2,Cc1cc(C)cc(N(CC(=O)NC2CCC(C)CC2)S(=O)(=O)c2c(C)noc2C)c1 (centres unmarked),7.37
3,CSc1nnc2c(n1)OC(c1cn(C)c3ccccc13)N(C(C)=O)c1ccccc1-2 (centres unmarked),12.1
4,CC(Cl)C(=O)NC(=O)NC12CC3CC(CC(C3)C1)C2 (centres unmarked),17.7
5,O=C(CN1CCCC1=O)NC1C2CC3CC(C2)CC1C3 (centres unmarked),9.69
6,C/C(=N\Nc1ccccc1)c1c(O)n(Cc2ccccc2)c(=O)[nH]c1=O,14.5
7,CCCCOC(=O)CCc1c(C)[nH]c(=S)[nH]c1=O,6.96
8,Cc1ccc(COc2ccc(/C=N/NC(=O)CN3CCCCC3)cc2)cc1,12.7
9,Cc1ccc(-n2ccnc(SCC(=O)NC3CCCC3)c2=O)cc1F,1.28
10,CC(C(=O)N1CCN(Cc2ccc3c(c2)OCO3)CC1)n1cc([N+](=O)[O-])cn1 (centres unmarked),10.1
11,CC(C)(C)OC(=O)NCCc1nnc(SCc2ccccc2)o1,10.2
12,Cc1cc(C(F)(F)F)n2nc(-c3cnn(C)c3C(F)(F)F)cc2n1,13.1
13,COC(=O)c1ccc(S(=O)(=O)c2ccccc2)c(N)c1,8.94
14,O=C(Cc1ccc(S(=O)(=O)N2CCOCC2)s1)Nc1cc(Cl)ccc1Cl,7.49
15,CC1=C(C(=O)NCCCOC(C)C)C2(CCC(C)CC2)OC1=O (centres unmarked),14.9
16,C[C@](N)(CCP(=O)(O)O)C(=O)O.Cl,-5.32
17,Cc1ccc2nc(-c3cccnc3)cc(C(=O)Nc3ccccc3[N+](=O)[O-])c2c1,-11.5
18,COc1ccc(CNC(=O)C2CCCN(S(=O)(=O)c3ccc(-n4cnnn4)cc3)C2)cc1 (centres unmarked),9.01
19,CCOC(=O)c1[nH]c2ccc(Br)cc2c1NC(=O)CCN1CCC(C(=O)OCC)CC1,-43.5
20,COCCNC(=O)C(=O)NCC1OCCN1S(=O)(=O)c1ccc2c(c1)OCCO2 (centres unmarked),12.7
21,COc1cc(C)ccc1OCCOCCOc1cccc2ccc(C)nc12.O=C(O)C(=O)O,-1.27
22,CCCc1nc(Cl)c(C#N)c2c1CCCC2,12.6
23,O=C1CC(SCCO)C(=O)N1c1ccccc1 (centres unmarked),-6.42

row,Compound,"hERG current change (%, negative = inhibition) at 1uM [%]"
1,O=C(CSc1cccc2cccnc12)N/N=C/c1cccnc1,15.8
2,CCCC1CCC(=NNC(=S)NCCc2ccccc2)CC1 (centres unmarked),7
3,CC(=O)Nc1ccc(N=Cc2ccc(OCc3ccccc3)cc2)cc1,5.99
4,Cn1c(-c2ccc(F)cc2)cnc1SCC(=O)Nc1ccccc1,3.41
5,CC1Cc2ccccc2N1C(=O)C1CCCN(S(=O)(=O)c2cccc3cccnc23)C1 (centres unmarked),5.33
6,CCN(CC)C(=O)Oc1nnc(SC(C)C)n1-c1ccc(Cl)cc1,15.6
7,CCC1CCCCN1CCCNC(=O)CC1Oc2ccc(C)cc2NC1=O (centres unmarked),-1.36
8,C/C(=N\NC(=O)c1ccc([N+](=O)[O-])cc1)c1cc2ccccc2oc1=O,2.18
9,NC1=NC(=Nc2ccc(S(N)(=O)=O)cc2)c2ccccc21,11.6
10,COc1ccc(/C(O)=C2\C(=O)C(=O)N(Cc3ccco3)C2c2ccc(OC)cc2OC)cc1 (centres unmarked),8.05
11,COC(=O)C(Cc1ccc(O)cc1)NC(=O)CCc1nc2ccccc2s1 (centres unmarked),11.7
12,Cc1[nH]c2ccccc2c1SCc1n[nH]c(=S)n1C,17.7
13,O=C(CSc1nnc2ccccn12)NCc1cccs1,18
14,O=C(NNC(=O)c1ccc(NC(=O)C2CC2)cc1)c1ccc(F)cc1,8.13
15,O=C(CSc1nc2ccccc2n1S(=O)(=O)c1cccc([N+](=O)[O-])c1)NCCc1ccccc1,10.7
16,CCOc1ccccc1N(C(=O)Cn1nnnc1-c1ccc(C)o1)C(CC)C(=O)NC(C)(C)C (centres unmarked),-5.99
17,CC(CN1CCN(C)CC1)OC(=O)c1ccccc1.Cl (centres unmarked),15
18,c1ccc(-n2cccc2)c(N2CCCCC2)c1,3.78
19,COc1ccc(CNCc2cccc(C)c2)cc1.O=C(O)C(=O)O,0.793
20,CC(C)(C)NC(=O)C(OC(=O)c1ccco1)c1ccccc1F (centres unmarked),7.48
21,Clc1ccc2nncn2n1,11
22,O=C(Nc1ccnn1C1CCN(C(=O)c2ccc(F)c(Cl)c2)CC1)C1CC1,15.9
23,Cc1ccc(N2CC(C(=O)Nc3nccs3)CC2=O)cc1 (centres unmarked),3.72

row,Compound,"hERG current change (%, negative = inhibition) at 1uM [%]"
1,C[C@H](NC(=O)C1CCN(S(=O)(=O)c2ccccc2)CC1)C(=O)NCc1ccc(Cl)c(Cl)c1,15.8
2,CCCCn1c(N)c(N(CCOC)C(=O)COC(=O)CCOc2ccc(C)cc2)c(=O)[nH]c1=O,9.05
3,O=C(CSc1c(F)c(F)cc(F)c1F)Nc1ccc(C2SCCS2)cc1,7.36
4,Cc1ccc(S(=O)(=O)N2CCN(C(=O)COC(=O)Cc3ccc(Cl)cc3)CC2)c(C)c1,17.8
5,Cc1ccc(C2(C)NC(=O)N(CC(=O)N(Cc3ccccc3)C(C)(C)C)C2=O)cc1 (centres unmarked),6.95
6,S=c1[nH]nc(-c2ccccn2)n1/N=C/c1cccs1,6.66
7,CCC(C)(C)NC(=O)C1CCCN(S(=O)(=O)c2ccc3c(c2)CC(C)N3C(=O)C2CC2)C1 (centres unmarked),4.91
8,COc1ccc(CCN=C(N)NS(=O)(=O)c2ccc3ccccc3c2)cc1,6.97
9,CN(C(=O)Cn1cccc1C1=NC(c2ccccc2)CO1)c1ccccc1 (centres unmarked),-1.03
10,CCOC(=O)Cn1nc(-c2ccccc2)c2cnc3ccc(C)cc3c21,17.9
11,CC(C)(C)c1ccc(O)c(/C=N\O)c1,10.9
12,COc1ccc(CC2(CCc3ccncc3)C(=O)NC(=O)NC2=O)cc1,18.6
13,CCOC(=O)N1CCN(C2CC(=O)N(c3ccc(F)cc3)C2=O)CC1 (centres unmarked),5.2
14,CC(=O)N(C(C)=O)S(=O)(=O)c1ccc(N=NN2CCCCC2)cc1,11.6
15,COc1ccc(OC)c(S(=O)(=O)N(C)CC(=O)N2CCc3ccccc3C2)c1,-2.4
16,CC[n+]1c(C)sc2c(C)cc(C)cc21.[I-],17.7
17,COC(=O)[C@H](Cc1ccccc1)NC(=O)c1cc(COc2c(F)cccc2F)on1,14.6
18,COc1cccc(C(=O)NN2C(=S)N(c3ccccc3)C(=O)C2CC(N)=O)c1 (centres unmarked),16.3
19,CCOC(=O)c1ccc(N2CCN(c3cc(C)ccc3C)CC2)c(N)c1,1.1
20,CC(C)C(NS(=O)(=O)c1ccc2c(c1)OCCCO2)C(=O)O (centres unmarked),13.9
